The list shows a part of the results. At the low end of the ranking the order means little.
Target: SIX1 homeodomain (reference allele) (UniProt Q15475)
Assay: universal protein binding microarray
Conditions: Universal all-10-mer PBM (8x60K, AMADID 030236), 300 nM GST-tagged protein, Alexa Fluor 488 anti-GST; buffer, salt, pH and temperature not stated; high values mean tight binding; most listed sequences are background and not binding sites; double strand, one strand shown

Sequence	binding signal [E-score]
ACTTGGGA	-0.165
CGTCTCTC	0.0464
AGGGACCA	-0.156
ATTCTTAG	-0.0225
GATAAAAC	0.164
AGGTTACC	-0.164
GAAACTTC	-0.369
AACCCGCA	-0.021
ATCACTAG	0.262
CGGTGCGC	-0.0469
ATAAGATA	0.28
ACTTCGAC	-0.151
ACGGACAC	0.0901
CACGCAAA	-0.0111
CATTGACC	-0.0678
CGAGCAGC	0.00537
ATTTTATC	0.0655
ATCTGGGC	0.24
ACGTTAAT	-0.0578
ATTACTAG	-0.107
ATACGTAC	0.336
ATTAGTGA	0.152
ATTCTAAC	-0.00892
GCACAGGC	-0.0625
AGGGGGCG	-0.0452

Sequence	binding signal [E-score]
GAGACATC	0.0479
ATGACTTG	-0.245
ATGCCTTA	0.0223
TAGGGAAA	-0.114
AAGCTCAT	-0.0834
CGAAAATA	0.143
GAAGAGCA	-0.195
ATCGGTAG	0.114
CACCCGGA	0.276
CGAAGTCG	-0.22
TACCAATA	0.204
CGCCCCGC	-0.0403
CGTGGCTA	-0.0774
ATCAGGCG	0.25
TAATAAGA	-0.105
TACTGATA	0.418
GATCGGTA	0.336
ATGTGCGC	-0.182
TATCCGAA	0.334
CACAGACA	0.0152
AACAAGAG	-0.208
CAATGTTA	-0.229
AACGACTA	-0.0864
CTATAGCA	0.0266
GGCAGACA	-0.157

Sequence	binding signal [E-score]
ACAACACG	0.0354
GCTTGGTA	0.108
AAAAAGGA	-0.0833
CGAGCTAG	0.0143
CTCACTAC	0.0261
AACGTAGA	-0.0516
GCGATAGA	0.0476
GGCCGTGA	-0.102
GGACGTAC	-0.182
AGCGAGAT	0.217
CTTAACGC	-0.126
GCAGACTA	-0.218
CGGCGGAG	0.042
TGGGAGAA	-0.0945
CGAATGTA	0.0571
GGCAATCA	-0.0816
AGGACAAA	-0.328
GTTCTGGA	-0.0068
CAATATCA	0.306
CGCAGACA	-0.111
CTAAAGTC	-0.232
ACGAGTAA	-0.0391
GTGAGCCA	-0.0401
GAAGGACA	-0.131
GTGCGCCA	-0.142

Sequence	binding signal [E-score]
CAGGGCGG	-0.00367
GCCCAAAC	-0.146
AGGGATTA	0.305
GATGTCTA	-0.0479
CGAACACG	-0.0519
GATAAGGC	0.0313
CGATGATA	0.445
ACATGACA	0.126
GCCGCAGC	-0.233
CAGGTTGG	-0.12
TGTTTCAA	-0.159
ATTTAGTC	-0.0853
AGGTTTCG	0.0667
AGTCACTC	-0.189
ACTAAGAG	0.0877
GACGACCA	-0.194
ATAACGTA	0.119
GTCCTCCA	-0.1
GGTGAAGA	-0.000135
AGCCCCCG	-0.0692
TAGCGTAA	-0.155
TGAATTAA	-0.0102
CACCACAC	0.173
TCCCATCA	-0.0976
ACTATCTA	0.154

Sequence	binding signal [E-score]
CCCAACGC	-0.0505
ATAGCGAG	0.00321
TCCACCAA	-0.0352
AAGTAGGA	-0.0758
CGGCTTAC	-0.116
AGCTTTTG	-0.225
AGACGTCT	0.0412
TACCAAGA	0.084
ACTATAAA	-0.191
AACCTGGA	-0.0116
CTGTCGTC	-0.121
CCCATTTA	-0.0492
CGGGAGTC	0.0622
ATCATGTC	0.295
ACCCTTGC	-0.0246
GCCTCTCC	0.0212
GACTACAC	0.0206
CAATGTTC	-0.211
CTAGAACA	-0.0503
CTCTCGGC	-0.12
AGATTATC	0.14
CTTGGGTC	-0.159
AGTGGCTG	-0.0379
GCAGTCAA	-0.298
ACCGTAGA	0.0323

Sequence	binding signal [E-score]
CCACAACC	-0.0539
CCGCTATA	0.176
CGGAGTAC	0.0699
CTGTGGCC	-0.178
ACTACTGC	-0.126
GGTTGCTA	-0.192
CGCGTATC	0.424
ATGAGTGA	0.126
ATGTCGTA	0.0798
CATGCCTA	-0.146
AGGTACCT	-0.263
GAGTGTCC	-0.0242
AGCCAGTC	-0.089
CTATCCGC	0.36
AAAAAAAT	-0.241
CGATCGAA	0.0968
AACTGACC	-0.162
AGCTTGAT	0.186
GTGAGCAA	-0.00787
AGTTATCA	0.119
GACTAATA	0.144
ACTGAACA	-0.0599
CAACCTGG	0.0307
CAGTTTCC	-0.24
GGGGGGAC	-0.258

Sequence	binding signal [E-score]
CAATAGTG	0.0137
CTACTGTA	0.165
ACCATGCC	-0.0639
ATACTTCG	0.304
CCGGGACA	-0.0617
CGAGGTAC	-0.137
AAACATCC	-0.00493
ACCTCCTA	0.004
AATAGCCG	-0.105
TCGGAAAA	-0.132
CAAACTTC	-0.315
TCGTCCCA	-0.13
GCGACGCA	-0.0979
AATTTCGT	-0.188
AGTATATC	0.383
GAGAAACA	-0.157
AAGGAATT	-0.185
AATGGGAC	-0.231
CACGCGAA	-0.214
AACGACAC	0.276
GACTTTAA	-0.172
ATGCCCAA	-0.0747
CTCCAATA	0.0224
AATATCGC	0.299
ATGACGTA	0.0659

Sequence	binding signal [E-score]
GTCAATAA	-0.0302
AGTCCATC	-0.0448
CGCCGAAG	-0.12
TATGTCGA	-0.0346
CTGGGATA	0.266
AGCCTGTA	0.0353
TGGAGAAA	-0.3
CCATATGC	0.159
ACCGTAAT	0.0213
CTTGGAAC	-0.112
CCGTTACG	-0.14
ATTGCGGC	-0.161
ACTGAGTG	-0.00266
GAGTCTGA	-0.248
TAGTATCA	0.457
GGACAAGA	-0.0999
GGTAAATA	-0.0336
GACCCCAA	0.11
CACCCTCA	-0.00249
CGACACAA	-0.169
CTGCAGAA	-0.191
ACTAATCC	0.228
ACGGCACA	-0.147
AGATACGG	0.401
AGGACCCG	-0.204

Sequence	binding signal [E-score]
CGAATAGC	-0.00541
GGTTGGGA	-0.0993
ACGTCTCT	-0.198
AATCGTCC	-0.158
ACGCTCGA	-0.0395
AAGCAAAT	-0.299
AGCCGCAT	-0.0491
TCCCTAAA	-0.0332
CATTTACA	-0.121
CACTCGGC	0.0257
CAAAGTAG	0.0182
GACCCATC	0.13
ATCGACAC	0.306
TCGAGAAA	-0.0533
CCTTTATC	-0.0131
ACTTGACC	-0.22
GCGAATAA	-0.153
AACCGGTG	0.056
ATCCCCTC	0.387
